PubChem BioAssay AID1345083 (National Center for Advancing Translational Sciences (NCATS), 2018)
About 6,200 (6.6%) of roughly 94,000 compounds were called active. This list was built around the results that the source calls inconclusive (neither active nor inactive); the mix of calls is not that of the screen. Calls come from the whole dose curve; as a rule, active = well fitted inhibition curve with a large enough effect; inconclusive = small, poorly fitted or top-dose-only effect; inactive = flat fitted curve, though single readings scatter. Potencies of inconclusive entries are doubtful fits and often do not repeat.

Assay: Cytotoxic Profiling in HEK 293 Cell Line of Diverse Libraries Using Quantitative High-Throughput Screening; note: nearly all actives have a fitted effect of over 60% in size
Conditions: HEK 293 viability, ATP luminescence (CellTiter-Glo), 48-72 h; series mostly up to 115 µM
Method in brief: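 CellTiter-Glo luminescence (cellular ATP) was read after 48 or 72 hr of compound exposure at 37 degree Celsius. Cells were HEK 293 plated at 250 cells/well.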
Potency is the fitted concentration of half-maximal effect; tags give direction and shape of the fitted curve.

| Structure (SMILES) | Potency |
| --- | --- |
| CN(Cc1ccc(N(C)C)cc1)Cc1ccccc1C(F)(F)F | inconclusive: 126 µM [inhibitor, single point] |
| O=C(CS(=O)(=O)c1ccccc1)N[C@H]1CCN2C(=O)[C@H](Cc3ccc(F)cc3)NC(=O)[C@@H]2C1 | inactive |
| CCC1=C(C(=O)OC)C(c2ccccc2F)N2C(CC(=O)N3CCC(C)CC3)=CSC2=N1 (stereo unspecified) | inconclusive: 50.1 µM [inhibitor, partial curve, poor fit] |
| Cc1ccc(-c2noc(CCCC(=O)N3CCC(c4nc(C(=O)N5CCCC5)c(C)o4)CC3)n2)cc1 | active: 35.5 µM |
| COc1ccc2c(c1)nc1n2[C@@H](CN(Cc2nccs2)Cc2nccs2)COC1 | inconclusive: 44.7 µM [inhibitor, partial curve] |
| CN(C)C(=O)c1cccnc1OC1CCN(C(=O)c2ccc(OC(F)(F)F)cc2)C1 (stereo unspecified) | inconclusive: 56.2 µM [inhibitor, partial curve, poor fit] |
| CCC(=O)N1CCCN(CCN(C)C)c2ccccc21 | inactive |
| CCCNC(=O)Cc1ccc(N(Cc2ccc(F)cc2)C(=O)c2ccco2)cc1 | active: 89.1 µM |
| CCCOCCNC(=O)c1c(C)noc1-c1ccc(C(C)(C)C)cc1 | inconclusive: 35.5 µM [inhibitor, full curve] |
| CCN1CC2(CCN(C(=O)[C@H]3Cc4ccccc4CN3)CC2)CC1=O | inactive |
| COc1ccc(CN2CCc3nc(C)nc(-c4ccc(OC)cc4)c3CC2)cc1 | inconclusive: 50.1 µM [inhibitor, partial curve, poor fit] |
| CC(C)N1CC(C(=O)NCc2ccc(C(F)(F)F)cc2)NC1=O (stereo unspecified) | inactive |
| COc1ccc(NC(=O)Cn2c(=O)n(-c3ccc(F)cc3)c(=O)c3c2cc(C)n3C)cc1 | inconclusive: 89.1 µM [inhibitor, single point] |
| O=C(Nc1ccc(Cl)cc1)c1nc2c(o1)CCN(Cc1ccc3c(c1)CCO3)CC2 | inconclusive: 28.2 µM [inhibitor, full curve] |
| COc1ccc(CNC2(Cc3cc(CC(C)C)on3)COC2)cc1 | inconclusive: 126 µM [inhibitor, single point] |
| Cc1cc(-c2cccc(CCOc3cnc4c(ccn4CC(=O)O)c3)c2)ccn1 | inconclusive: 100 µM [inhibitor, partial curve, poor fit] |
| COc1cccc(-c2ccc(CN3CCCC(NC(=O)Cc4ccc(F)cc4)C3)cc2)c1 (stereo unspecified) | active: 31.6 µM |
| Cc1cc(C)n(-c2cccc(CN(C)C(=O)c3cn(Cc4ccc(Cl)cc4)nn3)c2)n1 | inconclusive: 50.1 µM [inhibitor, partial curve, poor fit] |
| O=C1CC2(CCN(C(=O)C3CCCN(C(=O)Cc4cccc(Cl)c4)C3)CC2)Oc2ccccc2N1 (stereo unspecified) | inconclusive: 50.1 µM [inhibitor, partial curve, poor fit] |
| CCN1C(=O)COC[C@@H]1[C@H](O)c1ccc(NC(=O)c2ccnc(Cl)c2)cc1 | inconclusive: 31.6 µM [inhibitor, partial curve, poor fit] |
| Cc1noc(C)c1-c1ccc2c(n1)CN(Cc1nc3ccccc3s1)C(=O)CO2 | inconclusive: 100 µM [inhibitor, partial curve] |

| Structure (SMILES) | Potency |
| --- | --- |
| COc1cccc(-c2cc(C(=O)Nc3cccc(F)c3)c3cnn(C)c3n2)c1 | active: 44.7 µM |
| S=C(Nc1ccccc1)N[C@H]1CO[C@H]2[C@@H]1OC[C@H]2OCc1ccccc1 | inconclusive: 112 µM [inhibitor, partial curve] |
| O=C(N[C@@H]1CN(c2ccncn2)C[C@H]1CO)c1ccc(Cl)cc1 | inactive |
| Cc1cc(C)cc(C(=O)Nc2cccc(-c3nnc4n3CCCC4)c2)c1 | inconclusive: 89.1 µM [inhibitor, single point] |
| COc1ccc(CN2Cc3[nH]cnc3C[C@H]2c2nc(-c3ccccn3)no2)cc1 | inconclusive: 79.4 µM [inhibitor, partial curve, poor fit] |
| CCn1cc2c3c(cccc31)CN(C(=O)Cc1ccc(F)cc1)CC2 | inconclusive: 50.1 µM [inhibitor, partial curve, poor fit] |
| COCCn1c(=O)c(C(=O)NCc2ccc(OC)c(OC)c2)nc2cccnc21 | inactive |
| O=C(C1CCCCN1Cc1ccc(-c2ccsc2)cc1)N1CCCC1 (stereo unspecified) | inconclusive: 56.2 µM [inhibitor, partial curve, poor fit] |
| COc1ccc(C2Cn3cnc(C(=O)N4CCC(C(=O)NCc5cccnc5)CC4)c3CO2)cc1 (stereo unspecified) | inactive |
| O=C(c1cc2ccccc2[nH]1)N1CCN(c2cc(-c3ccccc3)[nH]n2)CC1 | inconclusive: 50.1 µM [inhibitor, partial curve, poor fit] |
| CC1(c2cccnc2)N(CC2CC2)C(=O)OC12CCN(C(=O)c1cccc(O)c1)CC2 (stereo unspecified) | inactive |
| O=C(c1cnccn1)N1CCc2[nH]nc(C(c3ccccc3)c3ccccc3)c2C1 | inactive |
| COCCCn1c(C)cc(C(=O)N2CCC(CCOc3ccccc3)C2)c1C (stereo unspecified) | inconclusive: 44.7 µM [inhibitor, partial curve, poor fit] |
| COc1ccc(CN2CCCCCNC(=O)CC2c2ccccc2)cc1Cc1c(C)noc1C (stereo unspecified) | inconclusive: 35.5 µM [inhibitor, partial curve, poor fit] |
| O=[S+]1([O-])NC2(CCN(Cc3ccc(F)cc3)C2)CNc2ccccc21 (stereo unspecified) | inconclusive: 89.1 µM [inhibitor, single point] |
| O=C(NCc1nnc2ccc(-c3ccccc3)nn12)c1ccc(Cl)cc1 | inactive |
| COc1cc(CN2CCc3c(c(CN(C(C)=O)c4ccccc4)nn3C)C2)ccc1O | inactive |
| COc1cccc(CN2C[C@@H]3C(=O)N(CCN4CCc5ccccc5C4)C(=O)[C@@H]3C2)c1OC | inconclusive: 56.2 µM [inhibitor, partial curve, poor fit] |
| Cc1nc(CCNc2cc(C3CC(O)C3)ncn2)sc1C (stereo unspecified) | inactive |
| Cc1noc2ncnc(N3CCC4(CC3)CC(c3ccccc3)CN(C)C4)c12 (stereo unspecified) | inconclusive: 39.8 µM [inhibitor, full curve, poor fit] |
